The record followed here is patent publication US20260116991A1 (HAINAN SIMCERE ZAIMING PHARMACEUTICAL, published 2026).

The experiment has as its target T1, murine GPC3-His protein (Sino Biological, Cat. No. 50989-M08B) (murine, UniProt Q8CFZ4 25-558).
T1 construct: Bought protein; also called murine GPC3 protein; mouse GPC3-his protein; not shown: His tag
In words: ELISA, coated antigen.

T1 sequence (Q8CFZ4 25-558 limits assumed): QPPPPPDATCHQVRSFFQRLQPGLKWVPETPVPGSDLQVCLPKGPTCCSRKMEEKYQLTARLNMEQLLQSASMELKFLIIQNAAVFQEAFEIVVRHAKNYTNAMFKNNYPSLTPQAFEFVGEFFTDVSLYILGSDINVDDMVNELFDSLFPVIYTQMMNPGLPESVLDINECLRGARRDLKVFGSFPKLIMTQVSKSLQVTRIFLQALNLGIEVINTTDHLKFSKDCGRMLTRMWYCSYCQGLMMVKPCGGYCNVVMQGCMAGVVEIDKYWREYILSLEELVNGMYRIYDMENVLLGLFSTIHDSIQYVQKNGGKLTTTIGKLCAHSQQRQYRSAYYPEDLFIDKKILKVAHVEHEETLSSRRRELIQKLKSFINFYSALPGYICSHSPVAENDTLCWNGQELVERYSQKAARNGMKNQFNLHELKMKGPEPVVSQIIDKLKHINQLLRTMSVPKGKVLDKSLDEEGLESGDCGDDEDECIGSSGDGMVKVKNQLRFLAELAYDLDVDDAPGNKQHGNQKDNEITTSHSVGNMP

B1: Y035 scFv-hFc (Fc fusion)
scFv: DIVMTQTPLSLPVITGEPASISCRSSQSLVHSNGNTYLQWYLQKPGQSPQLLIYKVSNRFSGVPDRFSGSGSGTDFTLKISRVEAEDVGVYYCSQSIYVPYTFGQGTKLEIKRGGGGSGGGGSGGGGSEVQLVQSGAEVKKPGASVKVSCKASGYTFSDYEMHWVRQAPGQGLEWMGAIHPGSGDTAYNQRFKGRVTITADKSTSTAYMELSSLRSEDTAVYYCARFYSYAYWGQGTLVTVSA[human IgG1 Fc with changes not shown]
notes: Control antibody; also called antibody Y035
On to B1, for which the binding result was “no binding (tested: 100 nM)”.
